# Values joined by “and” are separate entries in the source; they are usually repeats but may differ in a detail not shown here. Identical values can stand only once. Hit rate of the full screen: of about 420,000 compounds, about 50,000 (12%) were called active. Inconclusive means that the source gave no clear call. Such entries were picked first, then a sample of the others. Calls come from the whole dose curve; as a rule, active = well fitted inhibition curve with a large enough effect; inconclusive = small, poorly fitted or top-dose-only effect; inactive = flat fitted curve, though single readings scatter. Potencies of inconclusive entries are doubtful fits and often do not repeat. The source holds several records for some structures; these can differ, active in one and inactive in another.
# Assay: qHTS for Inhibitors of human tyrosyl-DNA phosphodiesterase 1 (TDP1): qHTS in cells in presence of CPT; note: nearly all actives have a fitted effect of over 55% in size
# Details: chicken DT40 Tdp1-/-;hTDP1 cells + 20 nM CPT, ATP luminescence, 48 h; activity change, negative = growth inhibition: at 46.2 µM (top of the series)
# Procedure, shortened: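 Cell growth measured by CellTiter-Glo luminescence after a minimum 48 h, 37 C compound exposure with 20 nM CPT in Tdp1-knockout DT40 cells stably expressing hTDP1, seeded 400/well; qHTS titration format.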
# % is set by controls: 0 for no effect and ±100 for the full control effect; potency is the fitted concentration of half-maximal effect; tags give direction and shape of the fitted curve.
SMILES,Potency,"activity change, negative = growth inhibition"
COc1ccc(C2=CSC3=NNC4(CCCCC4)NN23)cc1,inactive,–
CC1(c2nnc(Cc3ccccc3)o2)CC(c2cccc([N+](=O)[O-])c2)=NO1 (centres undefined),inactive,–
CC(C)n1ncc2c(C(=O)NCCOc3ccccc3F)cc(C3CC3)nc21,active: 11.6 µM,–
Cc1ccccc1CNc1ccc(C(CC(N)=O)NC(=O)c2ccc(Br)cc2)cc1[N+](=O)[O-] (centres undefined),"inconclusive: 29.1 µM [inhibitor, single point]",–
COC(=O)[C@@]12C[C@@H](CC(=O)NCC3CCCCC3)C(=O)N(Cc3ccc4c(c3)OCO4)C1=CCC(C)(C)C2,"inconclusive: 29.1 µM [inhibitor, single point]",–
c1ccc(Cn2nnnc2CN2CCN(Cc3ccc4c(c3)OCO4)CC2)cc1,active: 20.6 µM,–
COc1ccc(NC(=O)N(C)C[C@H]2Oc3ccc(NC(=O)NC4CCCCC4)cc3C(=O)N([C@H](C)CO)C[C@@H]2C)cc1,inactive,–
COc1cccc(OC)c1C(=O)Nc1cccc(-c2ccc3nncn3n2)c1,–,inconclusive: -38.5% [inhibitor]
c1ccc(COc2ccc(CNCc3cccs3)cc2)cc1,"inconclusive: 29.1 µM [inhibitor, single point]",–
Cc1sc2nc(C3CC3)nc(N3CCN(S(=O)(=O)c4ccc(F)cc4)CC3)c2c1C,"inconclusive: 18.4 µM [inhibitor, single point]",–
CCOc1ccc(-c2c(C)nn3c(C)c(C(=O)Nc4cc(C)cc(C)c4)cnc23)cc1OCC,"inconclusive: 13 µM [inhibitor, partial curve, poor fit]",–
c1ccc2c(-c3ccc(OCCN4CCCCC4)cc3)c(-c3ccsc3)sc2c1,active: 16.4 µM,–
COc1cccc(C(=O)CC(=O)C(=O)Nc2ccc([N+](=O)[O-])cc2C)c1,active: 23.1 µM,–
CC(=O)NCCNc1nc(NCc2ccccc2)nc2ccsc12,"inconclusive: 20.6 µM [inhibitor, single point]",–
COc1ccc(C(=O)OCCNC(=O)c2c(Cl)nc3ccccn23)cc1,"inconclusive: 25.9 µM [inhibitor, partial curve, poor fit]",–
CCN(CC)c1c(C)nc2ccc(C(=O)Nc3cc(-c4ccccc4)ccc3OC)cn12,"inconclusive: 20.6 µM [inhibitor, single point]",–
Cc1ccc(CN(C(=O)COc2cc(C)c(Cl)c(C)c2)c2ccccn2)o1,"inconclusive: 29.1 µM [inhibitor, single point]",–
CC(Sc1nc2ccccc2c(=O)n1CC1CCCO1)C(=O)N(C)c1ccccc1 (centres undefined),active: 20.6 µM,–
Cc1noc(/C=C/c2ccccn2)c1[N+](=O)[O-],"inconclusive: 32.6 µM [inhibitor, partial curve, poor fit]",–
N=c1sccn1CC(=O)Nc1ccccc1-c1ccccc1,"inconclusive: 20.6 µM [inhibitor, single point]",–
Cc1ccc(SCC(=O)OCC(=O)NC(C)c2ccc(Br)cc2)cc1 (centres undefined),inactive,–
CCOc1ccc(-c2nc(N)ncc2Oc2cccc(OC)c2)c(O)c1,"inconclusive: 16.4 µM [inhibitor, single point]",–
Cc1cc(C)cc(OCc2nnc(SCC(=O)c3ccc(Br)cc3)o2)c1,"inconclusive: 29.1 µM [inhibitor, single point]",–
Cc1nnc(SCCCn2c(N3CCCCC3)nc3c2c(=O)[nH]c(=O)n3C)s1,"inconclusive: 1.3 µM [inhibitor, full curve, poor fit]",–
Clc1ccc(OCCCCCN2CCOCC2)cc1,"inconclusive: 20.6 µM [inhibitor, single point]",–

SMILES,Potency,"activity change, negative = growth inhibition"
COc1cc(CNC2CCCCC2OC)cc(OC)c1 (centres undefined),inactive,–
Cn1c(SCC(=O)NCc2ccccc2)nc2ccccc21,inactive,–
CC(C)Oc1cc(F)ccc1-c1cc(C(=O)NCc2cccs2)[nH]n1,"inconclusive: 29.1 µM [inhibitor, single point]",–
COc1cc(C)nc(NCc2ccccc2)n1,"inconclusive: 20.6 µM [inhibitor, partial curve]",–
COc1ccccc1/C=C/C(=O)N1CCC(c2ccccc2)C1 (centres undefined),"inconclusive: 18.4 µM [inhibitor, single point]",–
COc1cc(C(=O)NCCCc2ccccc2)cc(OC)c1OC,inactive,–
Cc1sc2ncnc(N/N=C/c3ccccc3O)c2c1C,active: 3.66 µM,–
Cc1cc(C)c2sc(N3CCN(C(=O)c4ccc(N(C)C)cc4)CC3)nc2c1,"inconclusive: 29.1 µM [inhibitor, single point]",–
CC(C)Cn1c(N)c(C(=O)NCc2cccs2)c2nc3ccccc3nc21,"inconclusive: 18.4 µM [inhibitor, single point]",–
COc1ccc(-c2cn3c(C)c(C(=O)Nc4cccc(NC(C)=O)c4)sc3n2)cc1,–,inconclusive: -5.48% [inhibitor]
O=C(Cn1c(C(F)(F)F)nc2ccccc21)Nc1ccccc1N1CCOCC1,inactive,–
COc1ccc(C(C)=O)cc1CC(=O)Nc1ccc2c(c1)CCC2,inactive,–
Cc1ccc(C)c(-c2nnc(NC(=O)Cc3ccccc3)o2)c1,"inconclusive: 6.51 µM [inhibitor, single point]",–
COc1ccccc1N1CCN(S(=O)(=O)c2c(C)nc3sccn3c2=O)CC1,inactive,–
CC[C@]12c3[nH]c4ccccc4c3CCN1C(=O)C(CC(=O)NCc1ccco1)C[C@@H]2C(=O)N1CCN(C(=O)c2ccco2)CC1 (some centres undefined),inactive,–
Cc1ccc(S(=O)(=O)c2c(O)cc(C)c(NS(=O)(=O)c3ccc(Cl)cc3)c2C)cc1,"inconclusive: 29.1 µM [inhibitor, single point]",–
COc1ccc(CN2CCNC(=O)C2CC(=O)N(C)Cc2nc(C)cs2)c(OC)c1 (centres undefined),inactive,–
CCOC(=O)C1CCCN(C(=O)c2cc(S(=O)(=O)Nc3ccccc3OC)ccc2C)C1 (centres undefined),inactive,–
Cc1ccc(C)c(N(CC(=O)NC2CCCCC2)C(=O)c2snc(C(N)=O)c2N)c1,"inconclusive: 0.411 µM [inhibitor, single point]",–
COc1cc(C)c(/C=C/C(C)=C/C=C/C(C)=C/C(=O)O)c(C)c1C,"inactive and inconclusive: 14.6 µM [inhibitor, partial curve]",–
CCOC(=O)C[C@H]1c2ccc(C(F)(F)F)cc2S(=O)(=O)N1C(C)(C)C,active: 11.2 µM,–
COc1cccc(CN(C)C(=O)[C@@H](NC(=O)c2ccc(C)cc2)C(C)C)c1,active: 20.6 µM,–
O=C(CN1C(=O)S/C(=C\c2cc(Cl)c(O)c(Cl)c2)C1=O)Nc1ccccc1,"inconclusive: 18.4 µM [inhibitor, single point]",–
COc1cc(C(=O)Nc2ccc(NC(=O)c3cccc(Cl)c3)nc2)cc(OC)c1OC,active: 25.9 µM,–
CC(C(=O)NCc1ccco1)n1ccc2cc(S(=O)(=O)N3CCCCC3)ccc21 (centres undefined),"inconclusive: 25.9 µM [inhibitor, single point]",–

SMILES,Potency,"activity change, negative = growth inhibition"
COc1cc(Cl)ccc1OCc1cc(C(=O)N(C)CC2CCCCO2)no1 (centres undefined),inactive,–
CC(C)c1nn2c(=O)cc(COC(=O)c3ccco3)nc2s1,inactive,–
Cc1cccc(N2CC(C(=O)NC3CCCCCC3)CC2=O)c1C (centres undefined),"inconclusive: 16.4 µM [inhibitor, partial curve]",–
O=C(C1CC1)N1CCC(c2nc(-c3ccc(S(=O)(=O)NCC4CCCO4)cc3)no2)CC1 (centres undefined),active: 12.6 µM,–
COCCCNC(=O)C(=O)Nc1cc2c3c(c1)CCC(=O)N3CCC2,inactive,–
CCC(C)[C@H](NC(=O)N1CC(=O)Nc2ccccc21)C(=O)Nc1ccccc1C (some centres undefined),active: 16.4 µM,–
Cc1nn(Cc2ccc(C(=O)NN)cc2)c(C)c1Cl,inactive,–
COc1ccccc1C(=O)Nc1ccc(C(=O)OCc2cc(=O)n3nc(C4CC4)sc3n2)cc1,inactive,–
O=[N+]([O-])c1ccc(N=Nc2c(Cl)cc(O)cc2Cl)cc1,active: 4.11 µM,–
Cc1oc(-c2ccccc2)cc1C(=O)NCc1ccncc1,"inconclusive: 23.1 µM [inhibitor, single point]",–
COc1ccc(N2C(=O)CSC23C(=O)N(CC(=O)NCCc2ccccc2)c2ccccc23)cc1 (centres undefined),active: 16.4 µM,–
Cc1ccccc1NC(=S)NC(NC(=O)C(C)(C)C)C(Cl)(Cl)Cl (centres undefined),inactive,–
CC(C)Oc1cccc(C(=O)C2CCCN(Cc3ccc4nonc4c3)C2)c1 (centres undefined),inactive,–
CSc1ccc(CN2C(=O)NC3(CCCCCCC3)C2=O)cc1,inactive,–
S=C(NCC1CCCO1)n1nnc2ccccc21 (centres undefined),"inconclusive: 18.4 µM [inhibitor, single point]",–
Cc1c(/C=C(\C#N)c2nn(-c3ccccc3)c(N)c2C#N)c2ccccc2n1Cc1ccc(F)cc1,"inconclusive: 29.1 µM [inhibitor, single point]",–
O=C(CCc1nc2ccccc2c(=O)[nH]1)NCCN1C(=O)S/C(=C\c2ccc(Cl)cc2Cl)C1=O,active: 8.2 µM,–
COc1cc2[nH]c(=O)n(CCC(=O)N3CCN(c4cccc(C)c4C)CC3)c(=O)c2cc1OC,active: 23.1 µM,–
COc1cc(N=c2ssnc2Cl)cc(OC)c1OC,active: 3.26 µM,–
COc1cc(SC)ccc1C(=O)NCCc1ccccc1,active: 14.6 µM,–
CCOC(=O)c1c(-c2ccc(C)cc2)csc1NC(=O)CCN1CC(C)OC(C)C1 (centres undefined),"inconclusive: 18.4 µM [inhibitor, single point]",–
O=C(c1cccc(S(=O)(=O)N2CCCCCC2)c1)N1CCN(c2ccccc2)CC1,"inconclusive: 29.1 µM [inhibitor, single point]",–
CC(=O)NNC(=O)c1[nH]c2ccc(Cl)cc2c1-c1ccccc1,inactive,–
Cc1cccc(-n2c(C)cc(/C=C3/C(=N)N4C(c5ccccc5)=CSC4=NC3=O)c2C)c1,"inconclusive: 25.9 µM [inhibitor, single point]",–

# Reference: PubChem BioAssay AID686979 (National Center for Advancing Translational Sciences (NCATS), 2013)
